In publication PMC8460140 one finds binding data, which are given here for seven substances.

Chains of the proteins cited; added tags and fusions are not shown. Lines headed by an entry give the natural chain unless they say otherwise; changes in a name come on top. Residues count along the entry.
UniProt P47746: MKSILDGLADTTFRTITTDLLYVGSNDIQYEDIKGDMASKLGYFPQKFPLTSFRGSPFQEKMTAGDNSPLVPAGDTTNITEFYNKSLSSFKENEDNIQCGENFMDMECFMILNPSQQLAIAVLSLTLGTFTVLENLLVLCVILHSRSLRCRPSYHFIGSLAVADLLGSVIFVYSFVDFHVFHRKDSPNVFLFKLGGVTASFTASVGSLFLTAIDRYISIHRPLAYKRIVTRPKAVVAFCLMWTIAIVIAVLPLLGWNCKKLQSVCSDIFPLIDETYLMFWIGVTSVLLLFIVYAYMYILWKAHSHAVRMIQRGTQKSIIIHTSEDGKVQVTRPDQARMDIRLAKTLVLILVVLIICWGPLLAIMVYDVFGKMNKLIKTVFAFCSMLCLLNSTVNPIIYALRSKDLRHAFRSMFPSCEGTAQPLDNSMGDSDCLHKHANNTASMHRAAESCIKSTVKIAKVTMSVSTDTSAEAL
UniProt P11021: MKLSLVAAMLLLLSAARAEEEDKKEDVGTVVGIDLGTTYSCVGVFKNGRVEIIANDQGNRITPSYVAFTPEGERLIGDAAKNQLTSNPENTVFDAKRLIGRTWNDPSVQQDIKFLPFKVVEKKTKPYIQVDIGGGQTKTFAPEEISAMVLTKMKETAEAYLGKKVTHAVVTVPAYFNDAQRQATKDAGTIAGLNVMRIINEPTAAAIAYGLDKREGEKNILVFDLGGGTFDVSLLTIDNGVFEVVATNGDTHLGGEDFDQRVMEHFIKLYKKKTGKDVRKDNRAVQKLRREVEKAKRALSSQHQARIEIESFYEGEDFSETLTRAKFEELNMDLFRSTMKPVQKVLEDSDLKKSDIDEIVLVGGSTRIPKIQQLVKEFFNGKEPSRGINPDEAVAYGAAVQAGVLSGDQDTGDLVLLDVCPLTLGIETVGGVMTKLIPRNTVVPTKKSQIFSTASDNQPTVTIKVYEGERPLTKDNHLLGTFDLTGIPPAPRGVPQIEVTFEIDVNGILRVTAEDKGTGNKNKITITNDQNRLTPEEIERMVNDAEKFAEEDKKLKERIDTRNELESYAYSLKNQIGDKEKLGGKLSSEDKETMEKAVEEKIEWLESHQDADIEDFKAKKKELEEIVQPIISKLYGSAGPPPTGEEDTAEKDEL
UniProt P20029, residues 20-655: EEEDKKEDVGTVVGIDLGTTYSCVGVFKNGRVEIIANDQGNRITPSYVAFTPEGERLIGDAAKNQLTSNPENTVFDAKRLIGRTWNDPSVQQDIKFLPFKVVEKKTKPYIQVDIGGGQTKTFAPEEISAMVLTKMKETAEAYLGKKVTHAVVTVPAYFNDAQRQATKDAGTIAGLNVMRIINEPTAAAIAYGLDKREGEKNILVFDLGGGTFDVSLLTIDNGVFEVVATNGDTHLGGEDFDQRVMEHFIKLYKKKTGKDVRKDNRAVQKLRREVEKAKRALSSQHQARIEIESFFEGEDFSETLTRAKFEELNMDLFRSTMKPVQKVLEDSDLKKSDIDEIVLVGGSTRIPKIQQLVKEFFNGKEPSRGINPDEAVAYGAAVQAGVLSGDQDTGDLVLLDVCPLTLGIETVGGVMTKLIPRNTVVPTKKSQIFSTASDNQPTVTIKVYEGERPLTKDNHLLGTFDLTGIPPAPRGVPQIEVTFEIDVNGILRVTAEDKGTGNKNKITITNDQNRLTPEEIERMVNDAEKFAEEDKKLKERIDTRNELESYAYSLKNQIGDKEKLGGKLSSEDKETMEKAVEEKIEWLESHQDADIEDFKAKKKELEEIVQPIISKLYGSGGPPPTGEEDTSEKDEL

One assay has as its target HA-CB1R (UniProt P21554). Put plainly: co-IP; HEK-293T cells, 48 h after transfection; lysis in GST buffer (1% NP-40, 100 mM NaCl, pH 7.4); IP with HA-agarose beads or FLAG M2 agarose beads.
Assay [1] addresses T1, GFP-CB1R-CTD fragment, amino acids 449-460 (UniProt P21554).
T1 sequence: CIKSTVKIAKVT
Briefly: co-IP; HEK-293T cells, 48 h after transfection; lysis in GST buffer (1% NP-40, 100 mM NaCl, pH 7.4); IP with anti-GFP antibody and Protein A/G; blot for FLAG.

For assay [2], the target named is CB1R, endogenous in mouse brain (mouse (endogenous in mouse brain)) (UniProt P47746). Put plainly: proximity ligation; Duolink in situ PLA on 30-um fixed brain sections (hippocampus, striatum, cortex) of CB1R-floxed, CB1R-KO, GABA-CB1R-KO, Glu-CB1R-KO, Stop-CB1R, CB1R-RS, GABA-CB1R-RS and Glu-CB1R-RS mice; read-out: percent of cells with one or more dots.
For assay [3] the target is unchanged. Put plainly: proximity ligation; Duolink in situ PLA on fixed synaptosomes from hippocampus, striatum and cortex of CB1R-WT and CB1R-KO mice; rabbit anti-CB1R and mouse anti-GRP78/BiP antibodies.
Assay [4] addresses CB1R-Rluc (UniProt P21554). Put plainly: FRET or BRET; BRET in HEK-293T cells expressing CB1R-Rluc and GFP-BiP-IR, together or not with nontagged BiP, BiP-IR or BiP-ΔIR as competitors. A general note: In BRET a luciferase serves as donor, and the signal depends on an acceptor being close.
A further assay addresses CB1R-CTD-S464D (UniProt P21554). Put plainly: two-hybrid; directed Y2H: GAL4 binding domain bait and GAL4 activation domain prey; growth on Leu/Trp/His-deficient plates with 12 mM 3-aminotriazole and X-Gal hydrolysis.
The target of a further assay is CB1R-CTD-T467D (UniProt P21554). Described as above.
The target in a further assay is CB1R-CTD-T465D (UniProt P21554). The description is as above.
The next assay concerns the target CB1R-CTD-T460D (UniProt P21554). The assay is described as above.
Another assay has as its target CB1R-CTD-S462D (UniProt P21554). Described as above.
The next assay has as its target CB1R-CTD-S452D (UniProt P21554). The description is as above.
The target in the next assay is CB1R-CTD-T418D (UniProt P21554). Described as above.
Another assay deals with CB1R-CTD-S468D (UniProt P21554). The assay is described as above.
In assay [5] the target is T2, CB1R-CTD fragment, residues 449-472, Y2H bait (UniProt P21554).
T2 sequence: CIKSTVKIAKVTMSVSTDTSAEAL
Described as above.

The target in a further assay is CB1R-CTD-S448D (UniProt P21554). The assay is described as above.
In a further assay the target is CB1R-CTD-S425D (UniProt P21554). Described as above.
The target of a further assay is CB1R-CTD-T453D (UniProt P21554). Described as above.
The target of another assay is CB1R-CTD-S441D (UniProt P21554). The description is as above.
The next assay addresses CB1R-CTD-S410D (UniProt P21554). Described as above.
In a further assay the target is CB1R-CTD-S429D (UniProt P21554). Described as above.
The target in a further assay is CB1R-CTD-S414D (UniProt P21554). The assay is described as above.
Assay [6] addresses CB1R carboxyl-terminal domain (CB1R-CTD, amino acids 408-472), Y2H bait (UniProt P21554). Put plainly: two-hybrid; library screen: CB1R-CTD (amino acids 408-472) as bait, human cDNA library (>10^6 clones) as prey; MatchMaker system.
The target of assay [7] is CB1R-Rluc (UniProt P21554). Put plainly: FRET or BRET; BRET saturation in HEK-293T cells: constant receptor-Rluc, increasing amounts of GFP-BiP-IR; 5 uM DeepBlueC.
Another assay deals with CB1R-S452D-Rluc (UniProt P21554). The description is as above.

These are yes or no findings as the source states them, for the method shown. For part of these data: Binding seen in cells or lysates may run through a third protein. Some entries that bind do so weakly or less than the wild type. For part of these data: Where a sequence is shown, tags or fusion partners need not be part of it.

As for 3xFLAG-BiP (from UniProt P11021 19-654), the binding entry in the assay with HA-CB1R was “binds”.

Turning to “3xFLAG-BiP-IR (from UniProt P11021 497-654) (domain or fragment)”, the binding result (in assay [1]; with HA-CB1R) was “binds” each time.

With “BiP, endogenous in mouse brain (from UniProt P20029 20-655)”, the binding entry in [2] and in assay [3] was “binds” in each case.

“BiP, nontagged (from UniProt P11021 19-654)”: the binding entry in the assay with CB1R-Rluc [4] is on record as “binds”.

With “BiP-IR, nontagged (from UniProt P11021 497-654) (domain or fragment)”, in the assay with CB1R-Rluc [4], the binding entry is on record as “binds”.

For the substance “BiP-interacting region (BiP-IR, BiP amino acids 497-654), Y2H prey (from UniProt P11021 497-654) (domain or fragment)”, the binding entry is “binds” with CB1R-CTD-S464D; “binds” with CB1R-CTD-T467D; “binds” in the assay with CB1R-CTD-T465D; “binds” with CB1R-CTD-T460D; “binds” with CB1R-CTD-S462D; “no binding” in the assay with CB1R-CTD-S452D. Moreover, the binding entry (with CB1R-CTD-T418D; with CB1R-CTD-S468D; in assay [5]; in the assay with CB1R-CTD-S448D; in the assay with CB1R-CTD-S425D; with CB1R-CTD-T453D) was “binds” in each case. Moreover, the binding result (with CB1R-CTD-S441D; with CB1R-CTD-S410D; with CB1R-CTD-S429D; with CB1R-CTD-S414D; in [6]) was “binds” each time.

On to “GFP-BiP-IR (from UniProt P11021 497-654) (domain or fragment)”, for which the binding entry with CB1R-Rluc [4] was “binds”; in the assay with CB1R-Rluc [7] it was “binds”; with CB1R-S452D-Rluc, “no binding”.
